Columns and labels:
[1] = molecular target: T1, purified recombinant human type I procollagen (yeast cells from FibroGen) (human, UniProt P02452 23-1464; P08123 23-1366, hydroxyproline residues formed by co-expressed prolyl 4-hydroxylase; positions not given); experiment: SPR (BIAcore 3000), collagen immobilised on a CM5 chip, equilibrium analysis; high affinity class of sites
T1 construct: Procollagen, triple helical; also called Collagen I; procollagen I

[2] = molecular target: T2, purified recombinant human type III procollagen (yeast cells from FibroGen) (human, UniProt P02461 24-1466, hydroxyproline residues formed by co-expressed prolyl 4-hydroxylase; positions not given); experiment: as above
T2 construct: also called Collagen III; procollagen III
T2 sequence (looked up): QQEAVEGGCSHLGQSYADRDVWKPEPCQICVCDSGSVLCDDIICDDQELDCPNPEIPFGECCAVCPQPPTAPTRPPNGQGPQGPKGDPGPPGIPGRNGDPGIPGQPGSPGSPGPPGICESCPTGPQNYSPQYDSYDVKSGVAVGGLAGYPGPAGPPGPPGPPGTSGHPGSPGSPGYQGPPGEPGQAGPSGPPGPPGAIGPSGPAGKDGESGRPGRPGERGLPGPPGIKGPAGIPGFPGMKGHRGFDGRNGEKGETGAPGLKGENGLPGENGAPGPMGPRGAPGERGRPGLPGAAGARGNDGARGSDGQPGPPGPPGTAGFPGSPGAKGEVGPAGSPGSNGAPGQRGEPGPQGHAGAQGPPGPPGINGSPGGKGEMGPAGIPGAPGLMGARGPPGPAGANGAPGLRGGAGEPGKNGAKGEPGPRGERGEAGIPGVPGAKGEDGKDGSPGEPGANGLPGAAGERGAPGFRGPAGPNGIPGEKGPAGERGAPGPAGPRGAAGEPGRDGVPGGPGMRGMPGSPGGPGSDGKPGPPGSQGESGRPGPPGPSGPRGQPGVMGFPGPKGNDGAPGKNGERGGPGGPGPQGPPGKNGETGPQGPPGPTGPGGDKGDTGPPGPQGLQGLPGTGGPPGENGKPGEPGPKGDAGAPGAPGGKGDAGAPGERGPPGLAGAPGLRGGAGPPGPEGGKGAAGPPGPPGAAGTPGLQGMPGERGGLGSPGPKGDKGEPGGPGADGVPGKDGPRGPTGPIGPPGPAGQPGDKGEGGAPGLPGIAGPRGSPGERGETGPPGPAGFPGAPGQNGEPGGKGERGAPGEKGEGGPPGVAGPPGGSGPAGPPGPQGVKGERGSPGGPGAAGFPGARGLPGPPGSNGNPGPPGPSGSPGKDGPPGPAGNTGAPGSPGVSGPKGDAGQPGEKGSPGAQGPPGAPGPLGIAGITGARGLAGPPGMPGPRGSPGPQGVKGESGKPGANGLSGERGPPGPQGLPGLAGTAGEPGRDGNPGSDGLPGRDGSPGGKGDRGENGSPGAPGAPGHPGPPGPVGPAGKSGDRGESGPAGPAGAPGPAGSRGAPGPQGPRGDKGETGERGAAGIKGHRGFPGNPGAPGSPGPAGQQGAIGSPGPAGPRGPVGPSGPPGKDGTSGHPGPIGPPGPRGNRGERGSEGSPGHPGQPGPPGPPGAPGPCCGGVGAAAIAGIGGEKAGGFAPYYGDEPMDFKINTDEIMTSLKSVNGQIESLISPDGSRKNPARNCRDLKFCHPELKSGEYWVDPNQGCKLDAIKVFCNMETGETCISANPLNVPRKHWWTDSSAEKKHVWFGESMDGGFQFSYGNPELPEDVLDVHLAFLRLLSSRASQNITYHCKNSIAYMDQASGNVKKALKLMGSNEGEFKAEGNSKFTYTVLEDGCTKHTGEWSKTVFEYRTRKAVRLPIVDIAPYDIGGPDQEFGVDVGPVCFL

[3] = molecular target: T3, bovine mature type II collagen (Sigma) (bovine, UniProt P02459 182-1487); experiment: as above
T3 construct: mature; Bought tissue collagen; also called type II mature collagen; Collagen II

[4] = molecular target: T1, purified recombinant human type I …; experiment: SPR (BIAcore 3000), collagen immobilised on a CM5 chip, equilibrium analysis; low affinity class of sites
[5] = molecular target: T2, purified recombinant human type III …; experiment: as above
[6] = molecular target: T3, bovine mature type II collagen (Sigma); experiment: as above
T3 sequence (P02459 182-1487): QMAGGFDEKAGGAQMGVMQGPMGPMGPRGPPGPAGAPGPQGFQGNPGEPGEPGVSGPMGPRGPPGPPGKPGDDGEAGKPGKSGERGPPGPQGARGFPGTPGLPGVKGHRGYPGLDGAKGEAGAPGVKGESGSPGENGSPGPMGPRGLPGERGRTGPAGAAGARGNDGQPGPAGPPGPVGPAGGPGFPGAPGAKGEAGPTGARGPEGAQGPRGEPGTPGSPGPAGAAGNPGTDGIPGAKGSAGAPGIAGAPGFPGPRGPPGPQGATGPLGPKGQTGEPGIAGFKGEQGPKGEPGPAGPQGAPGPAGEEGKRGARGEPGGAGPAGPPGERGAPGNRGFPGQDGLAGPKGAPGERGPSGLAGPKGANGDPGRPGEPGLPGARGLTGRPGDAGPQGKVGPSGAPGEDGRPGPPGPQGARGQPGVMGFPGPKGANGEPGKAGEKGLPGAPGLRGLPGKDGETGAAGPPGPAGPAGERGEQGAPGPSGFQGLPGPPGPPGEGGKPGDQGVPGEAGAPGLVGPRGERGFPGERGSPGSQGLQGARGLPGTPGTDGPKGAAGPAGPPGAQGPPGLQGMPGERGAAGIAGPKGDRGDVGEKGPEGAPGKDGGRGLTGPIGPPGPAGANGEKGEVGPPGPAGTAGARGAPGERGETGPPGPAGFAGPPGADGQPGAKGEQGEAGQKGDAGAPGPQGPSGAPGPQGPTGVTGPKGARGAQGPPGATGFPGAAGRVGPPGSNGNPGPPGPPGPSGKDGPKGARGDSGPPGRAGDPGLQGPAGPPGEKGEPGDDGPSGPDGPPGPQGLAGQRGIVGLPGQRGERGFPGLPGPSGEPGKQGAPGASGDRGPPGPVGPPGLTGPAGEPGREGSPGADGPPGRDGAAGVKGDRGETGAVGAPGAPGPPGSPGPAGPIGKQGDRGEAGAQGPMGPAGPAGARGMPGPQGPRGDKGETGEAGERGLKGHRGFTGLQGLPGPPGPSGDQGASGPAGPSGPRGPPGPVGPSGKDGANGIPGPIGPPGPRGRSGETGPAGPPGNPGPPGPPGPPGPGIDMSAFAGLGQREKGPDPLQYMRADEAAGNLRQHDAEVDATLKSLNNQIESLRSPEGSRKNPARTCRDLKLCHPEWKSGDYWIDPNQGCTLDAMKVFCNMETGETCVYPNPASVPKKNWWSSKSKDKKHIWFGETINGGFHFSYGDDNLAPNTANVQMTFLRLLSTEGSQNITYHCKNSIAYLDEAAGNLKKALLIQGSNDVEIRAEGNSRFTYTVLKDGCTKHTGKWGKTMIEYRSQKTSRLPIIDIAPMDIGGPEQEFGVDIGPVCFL

T1 sequence (P02452 23-1464, chain 1 of 2): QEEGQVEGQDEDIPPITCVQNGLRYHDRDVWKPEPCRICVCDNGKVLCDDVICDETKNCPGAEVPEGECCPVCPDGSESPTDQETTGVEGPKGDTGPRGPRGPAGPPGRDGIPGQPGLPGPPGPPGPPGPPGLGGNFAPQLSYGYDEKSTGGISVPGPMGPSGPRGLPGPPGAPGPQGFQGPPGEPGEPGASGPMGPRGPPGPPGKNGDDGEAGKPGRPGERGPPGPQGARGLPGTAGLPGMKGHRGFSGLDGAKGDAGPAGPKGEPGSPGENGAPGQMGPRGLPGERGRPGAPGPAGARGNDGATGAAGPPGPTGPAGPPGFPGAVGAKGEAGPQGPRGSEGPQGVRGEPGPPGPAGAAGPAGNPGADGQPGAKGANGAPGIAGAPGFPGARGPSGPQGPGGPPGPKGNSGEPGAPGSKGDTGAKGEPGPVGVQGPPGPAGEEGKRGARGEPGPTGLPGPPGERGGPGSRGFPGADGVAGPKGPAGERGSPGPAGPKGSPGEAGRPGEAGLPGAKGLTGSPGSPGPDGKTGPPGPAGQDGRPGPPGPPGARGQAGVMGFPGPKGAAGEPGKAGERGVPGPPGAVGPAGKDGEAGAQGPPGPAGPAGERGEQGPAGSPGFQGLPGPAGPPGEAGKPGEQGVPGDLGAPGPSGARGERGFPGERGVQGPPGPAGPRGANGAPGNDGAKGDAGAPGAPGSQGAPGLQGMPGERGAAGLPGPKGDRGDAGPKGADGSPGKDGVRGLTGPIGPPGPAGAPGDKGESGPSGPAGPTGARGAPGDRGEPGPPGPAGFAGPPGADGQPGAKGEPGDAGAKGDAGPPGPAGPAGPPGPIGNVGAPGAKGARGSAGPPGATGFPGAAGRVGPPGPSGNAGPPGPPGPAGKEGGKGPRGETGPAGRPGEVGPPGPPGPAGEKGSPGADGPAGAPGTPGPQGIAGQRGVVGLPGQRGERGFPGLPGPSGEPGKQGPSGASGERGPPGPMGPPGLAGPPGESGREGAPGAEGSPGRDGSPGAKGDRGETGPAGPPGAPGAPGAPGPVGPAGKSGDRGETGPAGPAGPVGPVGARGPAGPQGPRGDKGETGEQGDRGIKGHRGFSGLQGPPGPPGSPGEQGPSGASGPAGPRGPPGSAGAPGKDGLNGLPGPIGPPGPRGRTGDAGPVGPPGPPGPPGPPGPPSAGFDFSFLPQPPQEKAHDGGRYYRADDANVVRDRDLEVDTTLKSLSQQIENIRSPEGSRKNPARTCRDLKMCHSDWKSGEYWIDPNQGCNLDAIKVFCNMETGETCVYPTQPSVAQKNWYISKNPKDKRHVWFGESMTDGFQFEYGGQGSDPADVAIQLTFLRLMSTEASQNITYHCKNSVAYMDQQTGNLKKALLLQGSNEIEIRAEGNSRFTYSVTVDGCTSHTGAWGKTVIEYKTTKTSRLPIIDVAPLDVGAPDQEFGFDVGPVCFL
T1 sequence (P08123 23-1366, chain 2 of 2, further chain): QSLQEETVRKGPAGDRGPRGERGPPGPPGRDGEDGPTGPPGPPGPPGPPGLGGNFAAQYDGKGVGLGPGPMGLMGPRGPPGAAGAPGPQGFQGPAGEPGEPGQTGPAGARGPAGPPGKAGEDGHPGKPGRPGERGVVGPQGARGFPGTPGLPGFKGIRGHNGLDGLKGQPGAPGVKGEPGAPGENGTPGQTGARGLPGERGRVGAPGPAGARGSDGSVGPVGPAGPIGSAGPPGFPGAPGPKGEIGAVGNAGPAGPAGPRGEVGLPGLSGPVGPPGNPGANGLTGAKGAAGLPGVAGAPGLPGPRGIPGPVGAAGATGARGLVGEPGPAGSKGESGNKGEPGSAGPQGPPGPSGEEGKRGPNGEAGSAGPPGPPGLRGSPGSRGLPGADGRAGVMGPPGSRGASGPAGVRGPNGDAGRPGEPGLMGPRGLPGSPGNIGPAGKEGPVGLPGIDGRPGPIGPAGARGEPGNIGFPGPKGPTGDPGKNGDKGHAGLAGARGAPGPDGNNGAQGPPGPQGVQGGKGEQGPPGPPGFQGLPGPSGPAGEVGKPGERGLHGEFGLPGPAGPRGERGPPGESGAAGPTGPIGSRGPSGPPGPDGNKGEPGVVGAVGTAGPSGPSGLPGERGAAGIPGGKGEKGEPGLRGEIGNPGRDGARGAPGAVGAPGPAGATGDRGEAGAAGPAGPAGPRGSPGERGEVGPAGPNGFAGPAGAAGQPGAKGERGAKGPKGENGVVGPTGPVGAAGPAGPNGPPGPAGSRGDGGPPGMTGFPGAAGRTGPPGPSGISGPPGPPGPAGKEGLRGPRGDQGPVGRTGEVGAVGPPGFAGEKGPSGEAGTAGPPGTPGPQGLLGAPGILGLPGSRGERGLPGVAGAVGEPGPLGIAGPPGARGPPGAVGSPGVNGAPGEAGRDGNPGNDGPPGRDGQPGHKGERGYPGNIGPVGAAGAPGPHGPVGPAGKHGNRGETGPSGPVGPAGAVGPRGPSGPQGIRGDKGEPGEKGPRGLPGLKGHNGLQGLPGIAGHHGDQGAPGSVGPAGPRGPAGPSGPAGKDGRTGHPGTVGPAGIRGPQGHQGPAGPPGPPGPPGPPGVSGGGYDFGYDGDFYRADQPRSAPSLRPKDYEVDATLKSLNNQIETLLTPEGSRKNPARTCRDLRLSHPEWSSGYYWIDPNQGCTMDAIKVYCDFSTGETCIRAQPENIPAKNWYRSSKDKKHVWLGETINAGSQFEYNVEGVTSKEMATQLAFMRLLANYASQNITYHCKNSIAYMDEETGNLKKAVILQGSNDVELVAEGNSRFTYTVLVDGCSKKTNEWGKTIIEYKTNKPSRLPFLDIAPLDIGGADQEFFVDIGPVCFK

Kd [1]: 320 nM
Kd [2]: 190 nM
Kd [3]: 150 nM
Kd [4]: 5500 nM
Kd [5]: 6150 nM
Kd [6]: 7280 nM
B1: recombinant I domain of integrin α1 subunit (receptor)
chain: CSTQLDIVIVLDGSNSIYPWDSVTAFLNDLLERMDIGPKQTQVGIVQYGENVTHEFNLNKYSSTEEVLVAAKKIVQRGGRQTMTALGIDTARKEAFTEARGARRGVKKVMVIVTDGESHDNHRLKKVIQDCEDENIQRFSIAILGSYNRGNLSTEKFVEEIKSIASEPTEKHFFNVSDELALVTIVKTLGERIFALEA
